# Assay results from the supplement of paper PMC3334620.
# The full ranking holds about 33,000 sequences; the median of “E-score (-0.5 to 0.5)” is about -0.013, and the highest 2% start at about 0.3. The list shows a part of the results.
# Biological target: T1, Msn1 (UniProt P22148)
# T1 sequence: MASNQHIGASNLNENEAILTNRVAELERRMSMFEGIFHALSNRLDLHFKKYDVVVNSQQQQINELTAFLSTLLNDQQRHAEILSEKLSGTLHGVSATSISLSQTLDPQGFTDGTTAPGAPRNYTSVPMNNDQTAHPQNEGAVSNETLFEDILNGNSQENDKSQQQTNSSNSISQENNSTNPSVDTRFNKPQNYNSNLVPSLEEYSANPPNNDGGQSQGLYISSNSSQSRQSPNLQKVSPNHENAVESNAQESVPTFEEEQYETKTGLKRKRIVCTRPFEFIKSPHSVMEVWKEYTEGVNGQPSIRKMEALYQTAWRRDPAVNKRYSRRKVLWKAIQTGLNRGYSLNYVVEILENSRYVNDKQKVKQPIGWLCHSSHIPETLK
# Assay: PBM E-score (8-mer binding enrichment) (E-score (-0.5 to 0.5)); higher = stronger / more preferred TF binding; most listed sequences are background and not binding sites
# Conditions: protein concentration: 200 nM; construct: GST-full length
# Procedure, shortened: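 Bound GST-tagged yeast transcription factors, applied at about 100-200 nM to double-stranded universal all-10-mer Agilent arrays, were detected with fluorescent anti-GST. Scans were normalised with masliner. A modified Wilcoxon-Mann-Whitney statistic, the E-score, was assigned to each ungapped eight-base word pooled with its reverse complement by the Universal PBM Analysis Suite.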
row,Sequence,PBM E-score
1,AGTTCCTG,-0.109
2,TGGCTCAA,-0.065
3,AATCTGAT,-0.08
4,CCTCTTAC,-0.0706
5,GGGTTAAC,0.00387
6,CAGCGTCA,-0.206
7,CCAGGTCA,-0.164
8,AGCAAACA,-0.00127
9,CATTGAGA,0.0342
10,GGATTCCC,-0.292
11,ACTACCTA,-0.108
12,GCTCTGCC,-0.281
13,CCCTAGCA,-0.119
14,GGTTTGCA,-0.172
15,AGCTTGGG,-0.0922
16,CGACGAAG,0.197
17,CTATAGAC,-0.0671
18,GTGTAGAA,-0.14
19,CCAAAGCA,0.0177
20,AATTACCC,0.0245
21,CCAGAACC,-0.0365
22,GAAATGAA,0.145
23,CAGAATGA,0.0577
24,AACCATTG,-0.055
25,ATCCTTGC,0.0639

row,Sequence,PBM E-score
1,ATATAATA,0.246
2,CACGCGTC,0.155
3,GGGTAACA,0.0748
4,CGCCATGC,-0.16
5,AGAGGTCA,-0.168
6,CGCCGTGA,0.0625
7,CACGGGGC,-0.217
8,CGCCTTAA,-0.0314
9,CGTGGAAG,0.0386
10,GGGGGACA,0.287
11,GGACCTAA,0.0993
12,CATTCACG,0.0343
13,GGTGTGGA,-0.094
14,ATCACTTC,0.11
15,CCCTTAAC,-0.272
16,AGACCCTC,-0.0895
17,CACGGGCA,-0.196
18,CAGTAACC,0.0542
19,ATTCCCCA,-0.0584
20,GGTTATCA,-0.115
21,CTTCTGGC,-0.249
22,AACTTTGT,0.197
23,AGCGAGAC,-0.0133
24,CTTTTGTA,0.3
25,ACGACGGG,-0.0714

row,Sequence,PBM E-score
1,CTCATGCC,-0.111
2,GTGGTGAA,-0.109
3,TGCAACCA,-0.0602
4,CCTGGACA,0.417
5,CTGCACCA,-0.265
6,CCAGGCAA,-0.0261
7,CCTAGTAC,0.0781
8,GTGTATCA,0.255
9,GGACCCTA,-0.199
10,GCTGCGGA,0.064
11,CAGCACAC,-0.093
12,ACAACAAG,0.116
13,TTCGACAA,0.191
14,ACTTCCCC,-0.219
15,ACGTGCAT,-0.106
16,CTAGCACA,-0.206
17,CGAGTAAC,0.0849
18,CCCCAACG,0.086
19,CTTAGGGA,-0.169
20,ACTCGTCA,-0.132
21,AAGTTAGG,0.0209
22,ACTCCATC,0.106
23,AGTGTCAG,0.063
24,GACTCTAC,-0.253
25,ATGGATGC,0.0578

row,Sequence,PBM E-score
1,CAGTACTG,-0.103
2,ATTAACCG,0.144
3,TACTGGAA,0.0647
4,CGGTCTAG,0.0838
5,GGAGGGCA,-0.262
6,CAATTTCA,0.101
7,AAAATACG,0.0427
8,CACAGCGC,0.0236
9,GTCCTAAC,0.36
10,CAATCGTA,0.126
11,AAGGGGGG,-0.442
12,ACTAGGGC,-0.17
13,ATCCAAAG,0.138
14,CGCCGCCG,-0.15
15,TGCACAAA,0.215
16,AGCCATAC,-0.102
17,CCCGGATC,0.0149
18,CAGGGTCG,-0.224
19,AAAGATCC,-0.12
20,AGGTTCCG,0.0578
21,CTCTTTTA,-0.139
22,AAGATCGT,0.0158
23,CGGAATAA,-0.0267
24,ATGGTAAA,0.156
25,CTTTTTAC,0.0646

row,Sequence,PBM E-score
1,CACTGCAC,-0.0104
2,AGTTCTTG,0.0615
3,AAATCGTA,0.0196
4,GTGTGTGA,-0.0578
5,GAATGGTA,0.0817
6,ATGGCAAC,0.0906
7,GTTCTTCA,0.128
8,CACACAGG,-0.0431
9,GATGTTGC,-0.0559
10,ACAGACTC,-0.14
11,CACCCACG,0.0403
12,ATATGGCA,-0.0465
13,GCTGCCAA,-0.23
14,ACCAGTTA,0.0334
15,CGCTGTCA,-0.00333
16,CCGTTTAA,0.125
17,AGTGTCTC,0.0356
18,AATCCTCG,-0.116
19,AGACCTTA,0.0418
20,TATAATAA,0.194
21,TTTCCAAA,-0.0383
22,AGATTACG,0.0842
23,CCAATGGG,-0.175
24,GTTGATGA,0.0432
25,ACTCATGA,0.101

row,Sequence,PBM E-score
1,TATATAAA,0.253
2,ACCTCACC,-0.229
3,CATTCTCA,0.188
4,AATTTATG,0.207
5,CACGGCCG,-0.118
6,GATTTTGA,0.216
7,CATACGCA,-0.00892
8,AGGACGAC,-0.102
9,ATCTCTTC,0.0787
10,ACTCGCGC,0.0147
11,CGAAAATA,0.118
12,GAGAGTTA,-0.0018
13,CCATTACC,-0.057
14,AGATCAGC,-0.2
15,TGGGTCAA,-0.0713
16,CATCCGCA,0.0727
17,CGACGACG,-0.0678
18,CTTTATTA,0.135
19,AAACTTAT,0.129
20,AGGCAAGA,-0.0214
21,CACGTTCC,-0.0731
22,ATGAAGCG,-0.0739
23,ACCGGTTC,-0.0882
24,CATCTAGC,-0.0457
25,CAAGCTAG,-0.189

row,Sequence,PBM E-score
1,CGCGACGA,0.171
2,AGGTCGCC,-0.164
3,AGAGTAGA,0.0921
4,CAAACACA,0.189
5,GACGCCCA,-0.0257
6,AACTAAGG,-0.076
7,AAGGCGTG,0.0605
8,CGACCCTC,-0.103
9,GGCTTTGA,-0.154
10,GAGAAGCA,-0.127
11,CTAATAAA,0.142
12,AGGCGAAC,0.00179
13,CAATAGAC,0.193
14,GAGAGGGA,-0.069
15,ATCCCTAC,-0.0219
16,AGCTAACA,-0.234
17,CCGTTAGG,-0.00238
18,AGGCCAAT,-0.072
19,ACATCCCA,0.14
20,GTCGACAC,0.141
21,CATCGTAC,-0.0141
22,TACGTAAA,0.211
